According to patent publication US10220090B2, “BCMA Antigen binding proteins” (Amgen Inc., priority 2012, dated 2019):
Positions count from the first letter of the chain named. In names and notes the source's numbering stands.

Tests used:
BCMA on H929 cells = target: T1, BCMA on H929 cells (Homo sapiens, UniProt Q02223, N81S); assay: FACS binding to native BCMA on H929 myeloma cells; settings: flow cytometry
T1 construct: host or cells: H929
T1 sequence (Q02223 1-184 N81S): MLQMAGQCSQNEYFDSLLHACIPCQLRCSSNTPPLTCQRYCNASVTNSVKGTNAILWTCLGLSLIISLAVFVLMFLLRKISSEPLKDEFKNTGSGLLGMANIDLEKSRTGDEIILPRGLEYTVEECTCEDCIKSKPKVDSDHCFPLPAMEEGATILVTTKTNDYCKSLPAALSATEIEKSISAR
Description: Approximately 10 to 40×10^6 of H929 myeloma cells were resuspended in a staining solution (2% goat serum, 1% rabbit serum, 0.02% azide in PBS) and aliquoted into round-bottom, 96-well plate (Corning Incorp., Acton, Mass.) as per the experiment design. The cells were incubated at 4 degrees celsius for 30 minutes to block non-specific sites. The antibodies were titrated into the staining solution. The cells were rinsed in a rinse solution (PBS+0.02% azide) by resuspending the cells in 200 ul/well. The cells were centrifuged at 1500 rpm at 4 degrees celsius for 7 minutes. The rinse solution was removed and the rinse step was repeated. […] The cells/antibodies were rinsed as described above to remove excess/unbound antibody. After the last rinse, the cells were resuspended in 200 ul of rinse solution with a drop of staining solution added to keep the cells from aggregating.
The antibodies were tested for binding to BCMA endogenously-expressed on a variety of cells, including the H929 cell line, which were developed from B-lymphocytes from a myeloma/plasmacytoma patient (ATCC, Manassa, Va.) using standard FACs techniques. Reagents were prepared using standard methods: 500 mL FACs buffer (PBS, 1% BSA, 5 mM EDTA, 0.02% NaN3), and FACs Block Buffer (30 mL FACs buffer, 5% Normal Rabbit Serum, 5% Normal Human Serum). […] The cell volumes were adjusted to bring all volumes up to 1 mL/tube w/ FACs buffer. The cells were centrifuged at 4° C. for 10 minutes at 1200 rpm. The supernatants were removed and the cell pellets were resuspended in 100 uL of FACs Block Buffer per tube. The cells were incubated for 30 to 60 minutes on ice. The BCMA antibodies were prepared by making premixes of 1:3 serial dilutions of antibodies in FACS Block Buffer starting at 10 ug/ml antibody (for example) in a final volume of 100 ul. The blocked cells were centrifuged at 4° C. for 10 minutes at 1200 rpm. The supernatants were removed and the cell pellets were resuspended in 100 uL of FACs Block Buffer containing the BCMA antibodies. The cells were incubated for 60 minutes on ice. After incubation, 1 mL of cold FACs Block Buffer was added to each tube. The cells were centrifuged at 4° C. for 10 minutes at 1200 rpm. […] After incubation, 1 mL of cold FACs Block Buffer was added to each tube. The cells were centrifuged at 4° C. for 10 minutes at 1200 rpm. […] After incubation, 1 mL of cold FACs Block Buffer was added to each tube. The cells were centrifuged at 4° C. for 10 minutes at 1200 rpm. The supernatants were removed and the cell pellets were resuspended in 0.2 mL/tube 4% paraformaldehyde in PBS and analyzed by flow cytometry

[1] = Differential Scanning Calorimetry (DSC) thermostability; type: physicochemical
Text: Differential Scanning calorimetry (DSC) was used to compare the thermostability of parent and engineered antibodies. DSC is a thermodynamical tool for direct assessment of the heat energy uptake, which occurs in a sample within a regulated increase or decrease in temperature. DSC is commonly employed to assess the thermal and conformational stability of a protein. The melting temperature of a protein, or of individual domains, can be obtained from the DSC profile, and if the reaction is reversible the thermodynamic parameters of the unfolding can be determined. A protein is considered more thermostable when the Tm (transition temperature) is higher. When thermostability data are compared to other bioanalytical methods, like size exclusion chromatography (SEC), it has been observed that a correlation between greater thermostability (higher Tm) and decreased aggregation. Antibodies with a higher Tm and decreased aggregation formation have the potential for improved long-term stability thus potentially making better biotherapeutics.
DSC was carried out using a MicroCal™ VP-Capillary DSC system (GE Healthcare, Piscataway, N.J.) equipped with an auto-sampler. The temperature differences between the reference and sample cells are continuously measured, and calibrated to power units. For example, the full-length antibodies shown in TABLE 10 were diluted to 0.5 mg/mL in a buffered solution. The solution reference and protein samples were measured in a 135 μL cell from 20 to 110° C. at a heating rate of 60° C./hour. The pre-scan was set at 15 minutes while the filtering period was 10 seconds. Signal from the blank buffer solution was used for baseline subtraction. The data analysis was performed using MicroCal™ Origin 7 software. Heat capacity during protein melting was calculated by normalizing over protein concentration.

[2] = system: CD138+ plasma cell fraction of multiple myeloma patient samples; assay: pHrodo flow cytometry internalization in multiple myeloma patient samples; type: cell-based, human; settings: pHrodo labeled antibody, 4 hours
Description: Samples were acquired from commercial sources (AllCells, Conversant, Proteogenex) to acquire approximately 1×10^6 plasma cells per sample. Individual multiple myeloma (MM) samples were thawed gently at room temp (RT). The thawed cells were added dropwise into 4 ml of 50% FBS (fetal bovine serum) RPMI buffer at RT. 3 ml of 10% FBS RPMI was added to the cell suspension. The cell suspension was gently inverted to mix and centrifuged at low speed to pellet cells. The media was aspirated and the cell pellet was resuspended in 1% FBS PBS (Phosphate Buffered Saline). The cells were manually counted on a hemocytometer. The cells were added to 10 FBS RPMI and allowed to recover in an incubator for 1 hr at 37° C. with 5% CO2. Cell viability was assessed as follows. Cells from primary MM and H929 cell lines were plated at 200,000 cells per well in a 96 well plate with fresh 10% FBS RPMI buffer with 5 wells per sample. The plate was centrifuged to pellet cells and media aspirated and resuspended in PBS three times. Cells were stained with Violet Live/Dead cell stain (Molecular Probes—L34955) per manufacturer protocol and incubated at RT in the dark for 30 minutes. […] Internalization/Immunophenotype (IP) was assessed as follows. […] Cells from each well were assessed using a LSRII (BD Bioscience) and FCS files generated. […]

pI (Whole) of antibodies = type: physicochemical; settings: method not stated

B1: Ab-19: 2A1 mutein C107T, heavy chain SEQ ID NO:289, light chain SEQ ID NO:288 (antibody)
heavy: EVQLVESGGGLVKPGRSLRLSCTASGFTFGDYALSWFRQAPGKGLEWVGVSRSKAYGGTTDYAASVKGRFTISRDDSKSFAYLQMNSLKTEDTAVYYCTSSGYSSGWTPFDYWGQGTLVTVSS[omitted - human IgG1 constant region]
light: QSVLTQPPSASGTPGQRVTISCSGSSSNIGSNTVNWYQQLPGTAPKLLIFNYHQRPSGVPDRFSGSKSGSSASLAISGLQSEDEADYYCAAWDDSLNGWVFGGGTELTVLGQPKAAPSVTLFPPSSEELQANKATLVCLISDFYPGAVTVAWKADSSPVKAGVETTTPSKQSNNKYAASSYLSLTPEQWKSHRSYSCQVTHEGSTVEKTVAPTECS
- binding to BCMA on H929 cells relative to parental 2A1 (BCMA on H929 cells): comparable binding
- Tm1 [1]: 64.8 °C
- Tm2 [1]: 76.1 °C
- Tm3 [1]: 83.3 °C

B2: Ab-21: 2A1 mutein, heavy chain SEQ ID NO:291, light chain SEQ ID NO:288 (antibody)
heavy: B1 heavy with F37V
light: B1 light
- binding to BCMA on H929 cells relative to parental 2A1 (BCMA on H929 cells): reduced binding

B3: Ab-26: 2A1 mutein, heavy chain SEQ ID NO:296, light chain SEQ ID NO:288 (antibody)
heavy: B1 heavy with F37V, F80T
light: B1 light
- binding to BCMA on H929 cells relative to parental 2A1 (BCMA on H929 cells): reduced binding

B4: Ab-27: 2A1 mutein, heavy chain SEQ ID NO:297, light chain SEQ ID NO:288 (antibody)
heavy: B1 heavy with F37V, T99A
light: B1 light
- binding to BCMA on H929 cells relative to parental 2A1 (BCMA on H929 cells): reduced binding

B5: Ab-38: 2A1-HC: R17G, T24A, C107A; heavy chain SEQ ID NO:309, light chain SEQ ID NO:312 (antibody)
heavy: B1 heavy with R16G, T23A, T99A
light: B1 light with E106K
- internalization in multiple myeloma patient samples [2]: effectively internalized in all 29 multiple myeloma patient samples
- pI (Whole) (pI (Whole) of antibodies): 8.39
- Tm ([1]; full-length antibody): 75 °C
